Assay results taken from PubChem BioAssay AID1956 (SRMLSC, 2009).
This is one part of the list. Further columns of the screen follow, without active or inactive calls.

assay: compounds boosting herpes simplex virus growth – fold increase, host cell viability (AID 1956); conditions: HSV replication augmentation in cells; fold increase: measured here: primary screen fold increase 10 uM, at 10 µM, stronger effect = higher value; viability: measured here: host cell viability series, at 25 µM, stronger effect = lower value; note: tested in PC3 cells

**Q.** For `CN(C)C(=O)CSc1nnc(CCN)o1`, which fold increase is on record?
**A.** Its fold increase is 1.42.

**Q.** What about the viability of the same compound?
**A.** The viability was 91.2%.

**Q.** Which fold increase does the source give for `CCCN1C(=O)/C(=C/c2ccc(N3CCCC3)c(C)c2)NC1=S` here?
**A.** Its fold increase is 2.54.

**Q.** What about the viability of the same compound?
**A.** The viability was 87.1%.

**Q.** What does the source list for `Cc1cc(O)c(/C=N/c2ccccn2)c(=O)o1`?
**A.** fold increase: 2.39; viability: 97.5%

**Q.** For `CC(C)(C)c1cc(-c2n[nH]c(=S)n2-c2ccccc2F)n[nH]1`, which fold increase is on record?
**A.** Its fold increase is 1.35.

**Q.** What about the viability of the same compound?
**A.** The viability was 95.4%.

**Q.** Which fold increase does the source give for `CCOc1cc(/C=C(\C#N)c2nc(-c3cccs3)c(NC(C)=O)s2)ccc1O` here?
**A.** The fold increase was 8.14.

**Q.** Which fold increase does the source give for `COc1ccccc1C(=O)Oc1ccc2c(c1)O/C(=C\c1ccncc1)C2=O` here?
**A.** The fold increase was 1.53.

**Q.** What about the viability of the same compound?
**A.** Its viability is 89.4%.

**Q.** Which results are given for `O=C(Cc1ccc(Cl)cc1)N/N=C/c1cccs1`?
**A.** fold increase: 1.34; viability: 96.9%

**Q.** For `Cc1ccc(S(=O)(=O)NC(C(=O)Oc2ccc3c(C(F)(F)F)cc(=O)oc3c2)c2ccccc2)cc1` (stereo unspecified), which fold increase is on record?
**A.** Its fold increase is 1.62.

**Q.** And the viability?
**A.** The viability was 98.5%.

**Q.** With `COc1cccc(-c2nc(NCc3ccco3)c3ccccc3n2)c1O` as the compound, how does the fold increase read?
**A.** The fold increase was 1.03.

**Q.** With `CCOc1ccc(C(=O)N/N=C(\c2ccccc2)c2ccccn2)cc1` as the compound, how does the fold increase read?
**A.** The fold increase was 1.07.

**Q.** Which fold increase does the source give for `Oc1ccccc1N=Cc1c(O)ccc2oc3c(c12)CCCC3` here?
**A.** The fold increase was 1.42.

**Q.** And the viability?
**A.** The viability was 93.7%.

**Q.** Which results are given for `CS(=O)(=O)N(Cc1ccccc1)c1ccc(C(=O)Nc2cccnc2)cc1`?
**A.** fold increase: 1.37; viability: 98.6%

**Q.** What does the source list for `OCCCn1c(-c2ccccc2)nc(=S)c2c1CCCC2`?
**A.** fold increase: 1.44; viability: 97.4%

**Q.** Which fold increase does the source give for `O=C1/C(=C/c2cccs2)N=C(c2cccs2)N1Nc1ccccc1` here?
**A.** Its fold increase is 1.34.

**Q.** Which fold increase does the source give for `CC1c2ccsc2CCN1S(=O)(=O)c1cccs1` (stereo unspecified) here?
**A.** The fold increase was 1.32.

**Q.** For `O=C(NC(=S)Nc1ccccc1)c1cc(-c2ccccc2)nc2ccccc12`, which fold increase is on record?
**A.** Its fold increase is 1.28.

**Q.** With `CC(C)(C)c1ccc(Oc2ccc(N)cn2)cc1` as the compound, how does the fold increase read?
**A.** Its fold increase is 1.93.

**Q.** What about the viability of the same compound?
**A.** The viability was 61.6%.

**Q.** For `CN=c1scc(-c2ccccc2F)n1/N=C/c1ccc[nH]1`, which fold increase is on record?
**A.** Its fold increase is 1.35.

**Q.** With `O=C(/C=C/c1ccc2c(c1)OCO2)c1ccc(F)cc1` as the compound, how does the fold increase read?
**A.** The fold increase was 1.57.

**Q.** And the viability?
**A.** The viability was 91.6%.

**Q.** For `COc1ccc2c(c1)c1nc3ccccc3nc1n2CC(=O)OC(C)C`, which fold increase is on record?
**A.** The fold increase was 1.52.

**Q.** And the viability?
**A.** Its viability is 71.8%.

**Q.** With `COc1cccc(-n2c(C)c3c(OC)cccc(=O)c3c2C)c1` as the compound, how does the fold increase read?
**A.** Its fold increase is 1.36.

**Q.** And the viability?
**A.** The viability was 97.4%.

**Q.** Which results are given for `Cc1ccc(C=Nc2cccnc2N)cc1`?
**A.** fold increase: 1.94; viability: 105%

**Q.** For `Cc1ccc(-c2cc(-c3ccc(F)cc3)c(C#N)c(N)n2)o1`, which fold increase is on record?
**A.** The fold increase was 1.41.

**Q.** Which fold increase does the source give for `O=C(O)C(Cc1ccc(O)cc1)N1C(=O)C2CCCCC2C1=O` (stereo unspecified) here?
**A.** The fold increase was 1.39.

**Q.** What about the viability of the same compound?
**A.** The viability was 94.9%.

**Q.** For `CCOC(=O)N1CCN(C(c2cccnc2)c2ccc3cccnc3c2O)CC1` (stereo unspecified), which fold increase is on record?
**A.** Its fold increase is 1.01.

**Q.** Which fold increase does the source give for `CC(C)(C)c1ccc(Cn2c(=N)n(CC(O)c3ccco3)c3ccccc32)cc1` (stereo unspecified) here?
**A.** Its fold increase is 1.49.

**Q.** And the viability?
**A.** The viability was 2.51%.

**Q.** Which fold increase does the source give for `CCCOC(=O)c1ccc(NC(=O)/C=C/c2cccs2)cc1` here?
**A.** Its fold increase is 1.51.

**Q.** What about the viability of the same compound?
**A.** Its viability is 96.7%.

**Q.** Which fold increase does the source give for `CN(C)Cc1c(O)ccc2c1O/C(=C\C=C\c1ccccc1)C2=O` here?
**A.** Its fold increase is 2.78.

**Q.** And the viability?
**A.** The viability was 52.9%.

**Q.** What does the source list for `O=[N+]([O-])c1ccc(-c2ccc(/C=N/Nc3nc(N4CCCCC4)nc(N4CCCCC4)n3)o2)cc1`?
**A.** fold increase: 1.66; viability: 54.9%

**Q.** Which fold increase does the source give for `CCOC(=O)c1cnc(COc2ccc(OC)cc2)[nH]c1=O` here?
**A.** The fold increase was 1.36.

**Q.** And the viability?
**A.** The viability was 93.9%.

**Q.** What does the source list for `O=C(NC1CC1)C1CCN(C2CCN(C(=O)c3ccc4cccc(F)c4n3)CC2)CC1`?
**A.** fold increase: 1.36; viability: 93.3%

**Q.** Which results are given for `CC(=O)N(C(C)=O)N1C(=O)c2cccc3c(N4CCOCC4)ccc(c23)C1=O`?
**A.** fold increase: 1.93; viability: 103%

**Q.** Which fold increase does the source give for `CC(C)NC(=O)/C(C#N)=C/c1ccc(N(C)C)o1` here?
**A.** The fold increase was 1.59.

**Q.** What about the viability of the same compound?
**A.** The viability was 92.5%.

**Q.** With `COC(=O)C/C=N/N=C1/NC(=O)/C(=C/C(=O)O)S1` as the compound, how does the fold increase read?
**A.** The fold increase was 1.4.

**Q.** And the viability?
**A.** The viability was 112%.

**Q.** With `CC(=O)Nc1sc(/C(C#N)=C/c2ccc(Cl)c(Cl)c2)nc1-c1ccc(C)cc1` as the compound, how does the fold increase read?
**A.** Its fold increase is 6.5.

**Q.** What about the viability of the same compound?
**A.** Its viability is 96.8%.

**Q.** Which results are given for `COc1cc(/C=C(\C#N)c2nc3ccccc3o2)ccc1O`?
**A.** fold increase: 8.41; viability: 85.6%

**Q.** Which results are given for `CCOc1cccc(=O)c2c(C)n(CC3CCCO3)c(C)c12` (stereo unspecified)?
**A.** fold increase: 1.39; viability: 97.8%

**Q.** Which fold increase does the source give for `COc1ccccc1NC(=O)c1c(NC(=O)CCC(=O)O)sc2c1CCCCC2` here?
**A.** The fold increase was 1.42.

**Q.** What about the viability of the same compound?
**A.** The viability was 99.9%.

**Q.** With `Cc1ccc(S(=O)(=O)C(C#N)c2nc3ccccc3nc2N2CCCC2)cc1` (stereo unspecified) as the compound, how does the fold increase read?
**A.** The fold increase was 1.54.

**Q.** What about the viability of the same compound?
**A.** Its viability is 92.8%.

**Q.** Which results are given for `COc1cccc(-c2nc3n(n2)C(c2ccccc2Cl)C(C(N)=O)=C(C)N3)c1` (stereo unspecified)?
**A.** fold increase: 1.44; viability: 91%

**Q.** Which fold increase does the source give for `Cc1cc(NC(=O)/C(C#N)=C/c2ccc(-c3ccc(SC(F)F)cc3)o2)n(-c2ccccc2)n1` here?
**A.** Its fold increase is 1.96.

**Q.** And the viability?
**A.** The viability was 79.9%.

**Q.** Which fold increase does the source give for `CCOC(=O)/C(C#N)=C(C)/C=C1\Sc2ccccc2N1CC` here?
**A.** Its fold increase is 1.95.

**Q.** What about the viability of the same compound?
**A.** Its viability is 92.2%.

**Q.** With `CCOC1=C/C(=C/c2c(N)n3nc(-c4ccccc4)sc3nc2=O)C=CC1=O` as the compound, how does the fold increase read?
**A.** The fold increase was 4.48.

**Q.** What about the viability of the same compound?
**A.** The viability was 94.1%.

**Q.** For `CCOc1ccc(S(=O)(=O)Nc2nc3ccccc3nc2Nc2ccc(N3CCOCC3)cc2)cc1`, which fold increase is on record?
**A.** The fold increase was 1.97.

**Q.** And the viability?
**A.** Its viability is 101%.

**Q.** For `O=[N+]([O-])c1ccc(N/N=C/c2cn(-c3ccccc3)nc2-c2ccccc2)cc1`, which fold increase is on record?
**A.** The fold increase was 1.19.

**Q.** With `O=C(Nc1cccnc1Cl)c1ccc(=O)oc1` as the compound, how does the fold increase read?
**A.** The fold increase was 1.39.

**Q.** And the viability?
**A.** Its viability is 97.2%.

**Q.** Which results are given for `Cc1cccn2c(=O)c(/C=C3\SC(=S)N(CC(C)C)C3=O)c(NCCCOC(C)C)nc12`?
**A.** fold increase: 2.21; viability: 97.8%

**Q.** For `Cc1onc(-c2ccccc2Cl)c1C(=O)NCCn1ccc2ccccc21`, which fold increase is on record?
**A.** Its fold increase is 1.35.

**Q.** What about the viability of the same compound?
**A.** The viability was 87.5%.
